Results as given in PubChem BioAssay (NCI).
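Each compound was tested at five concentrations against cells in 96-well plates for 48 hours. TGI marks complete inhibition of growth.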 Not every entry of the source has a single result; some have several. This list holds those alone. An entry can have further records. The tests behind the records often covered other concentration ranges, not given here; a value can be the end of its range.

How the values were obtained:
Experiment in all cases: DTP human tumour cell line panel, 48 h
SR leukemia = tested on: SR leukemia
OVCAR-8 ovarian = tested on: OVCAR-8 ovarian
CCRF-CEM leukemia = tested on: CCRF-CEM leukemia
MOLT-4 leukemia = tested on: MOLT-4 leukemia
SNB-19 CNS = tested on: SNB-19 CNS
SF-268 CNS = tested on: SF-268 CNS
IGROV1 ovarian = tested on: IGROV1 ovarian
SN12C renal = tested on: SN12C renal

COc1cc2cc(C(=O)N3C[C@@H](CCl)c4c3cc(OC(=O)N(CCC(=O)N3CCN(C)CC3)[C@H]3CCSSC3)c3ccccc43)[nH]c2c(OC)c1OC
TGI (SR leukemia): 25 µM and 595 nM
TGI (OVCAR-8 ovarian): 737 nM and 10 µM
TGI (CCRF-CEM leukemia): 7.22 µM and > 100 µM
TGI (MOLT-4 leukemia): 25 µM and 2.11 µM
TGI (SNB-19 CNS): 2.96 µM and 37 µM
TGI (SF-268 CNS): 25 µM and 676 nM
TGI (IGROV1 ovarian): 1.29 µM and 13.1 µM
TGI (SN12C renal): 1.12 µM and 11.4 µM
